# Laboratory results taken from the supplement of paper PMC4166925.
# ± gives the standard deviation of the averaged measurements. The full ranking holds about 33,000 sequences; the median of “E-score (dimensionless, -0.5 to 0.5)” is about -0.049, and the highest 2% start at about 0.37. The list shows a part of the results.
# Tested on: T1, PmTbr T-box DNA-binding domain (GST fusion)
# T1 sequence: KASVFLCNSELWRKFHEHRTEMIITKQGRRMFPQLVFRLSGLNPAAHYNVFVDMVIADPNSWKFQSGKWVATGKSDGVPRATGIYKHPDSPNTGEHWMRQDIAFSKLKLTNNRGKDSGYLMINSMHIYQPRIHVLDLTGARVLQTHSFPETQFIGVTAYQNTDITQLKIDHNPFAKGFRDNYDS
# Assay: PBM E-score of 8-mer (E-score (dimensionless, -0.5 to 0.5)); Tbr is Tbrain of the sea star Patiria miniata (Pm) or the sea urchin Strongylocentrotus purpuratus (Sp); higher = stronger binding preference; most listed sequences are background and not binding sites
# Details: the construct has about 5 more residues each side
# How it was run: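 Universal Agilent oligonucleotide arrays, made double-stranded by primer extension, were incubated with 200 nM GST-fused Tbr T-box DNA-binding domain in PBS (pH 7.5). The protein was expressed in BL21 E. coli at 20 °C and purified by glutathione affinity chromatography. After scanning and quantification, the Universal PBM Analysis Suite assigned an enrichment E-score to each ungapped 8-mer, averaged over duplicate arrays.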
row,Sequence,PBM E-score of 8-mer
1,CCCCCCAA,-0.188 ± 0.0032
2,GAGGAACA,0.0589 ± 0.018
3,CCCGTGGA,-0.0346 ± 0.024
4,CTGTGACC,0.102 ± 0.064
5,GCGCCTAC,0.215 ± 0.031
6,CCGCCGTA,-0.273 ± 0.021
7,AACCAGGA,-0.195 ± 0.062
8,TAGCAAAA,0.0785 ± 0.04
9,GTGACCAC,0.27 ± 0.024
10,CCTAGACC,-0.171 ± 0.057
11,CTACCATA,-0.107 ± 0.017
12,AAAAGCTC,-0.113 ± 0.048
13,CGTGTAAA,0.272 ± 0.062
14,CGCCACGC,0.104 ± 0.052
15,CCTTGGTC,-0.226 ± 0.017
16,CTATAGAG,-0.212 ± 0.029
17,AAATTCGT,-0.0925 ± 0.06
18,AACTCTAT,-0.0307 ± 0.014
19,TCCCTGAA,-0.211 ± 0.043
20,CTAGTCTA,-0.169 ± 0.008
21,AATCTTTA,-0.0517 ± 0.059
22,CCCGGTAA,-0.214 ± 0.061
23,ACTACTAA,-0.13 ± 0.069
24,ACCAGTTG,0.00957 ± 0.017
25,CAGACAAC,-0.0993 ± 0.092

row,Sequence,PBM E-score of 8-mer
1,ATGTAACC,-0.231 ± 0.011
2,CCTACTGA,-0.0371 ± 0.015
3,ACACGGAG,0.112 ± 0.013
4,CTCTTTCC,-0.141 ± 0.021
5,ACTCGGTG,0.165 ± 0.033
6,AAACTTGG,-0.127 ± 0.039
7,ATAGCCTC,-0.264 ± 0.0037
8,TGTCAACA,0.378 ± 0.0046
9,GCCGGATA,-0.3846 ± 0.00064
10,GGGTTTCA,-0.0619 ± 0.0074
11,GGTCCCGA,-0.258 ± 0.059
12,CGCGCTAC,0.222 ± 0.0032
13,AGCGCCTA,0.291 ± 0.0034
14,CAGCTTTA,0.128 ± 0.012
15,CGGGTGTC,0.4001 ± 0.002
16,ACTAGCCA,-0.136 ± 0.0066
17,AAGACTCC,-0.346 ± 0.035
18,AACGTCCC,0.0795 ± 0.045
19,TAAGCCCA,-0.108 ± 0.0083
20,GAAGTACA,-0.072 ± 0.067
21,AAAGGAGC,0.0134 ± 0.068
22,CACGCTAC,0.21 ± 0.0061
23,CGATCGCC,0.00664 ± 0.058
24,CCAGCTAC,-0.0956 ± 0.0014
25,GAACCTCA,-0.0283 ± 0.015

row,Sequence,PBM E-score of 8-mer
1,GGGTCGGA,-0.0673 ± 0.029
2,ACTGGTGG,0.0992 ± 0.011
3,AAGGGTCC,-0.2907 ± 0.0029
4,CTATTACA,0.215 ± 0.027
5,GTGGACAA,-0.0368 ± 0.05
6,CGAGTGTC,0.294 ± 0.018
7,ATCGCGCC,0.368 ± 0.016
8,GGAGTAAA,-0.215 ± 0.013
9,AACAGCTT,0.224 ± 0.025
10,GGTTAGGA,-0.248 ± 0.02
11,CGGAGCGA,-0.0369 ± 0.015
12,AACCATAT,-0.114 ± 0.024
13,CAAGTGGC,0.268 ± 0.028
14,GCCAAGAA,-0.184 ± 0.05
15,TCTCAAAA,-0.18 ± 0.015
16,CGGCTCCC,-0.105 ± 0.0077
17,CGCGCTTC,0.186 ± 0.003
18,ATAAGCTG,0.00532 ± 0.032
19,CACCTGAC,0.387 ± 0.018
20,ATTCGGGG,-0.123 ± 0.0065
21,AGACTCAT,-0.197 ± 0.051
22,TAGACATA,-0.213 ± 0.071
23,ACTCAGAG,-0.0864 ± 0.05
24,ACGAACCT,-0.194 ± 0.047
25,ATTCGGAA,-0.253 ± 0.0041

row,Sequence,PBM E-score of 8-mer
1,CGCACAAA,0.00904 ± 0.0019
2,AGGGTACT,-0.0255 ± 0.011
3,ATCCAGCG,-0.0414 ± 0.024
4,CTAGTATA,0.0653 ± 0.03
5,GCACCGTA,0.22 ± 0.041
6,AACTACAA,0.0706 ± 0.014
7,AGTTCCGG,-0.175 ± 0.016
8,GCCTTACC,-0.18 ± 0.014
9,AATGATGT,-0.09295 ± 0.00084
10,GAAGCCTC,-0.0948 ± 0.07
11,TGAGTCCA,-0.202 ± 0.027
12,GGTGCGGA,0.405 ± 0.015
13,TCGCGGCA,0.218 ± 0.03
14,CACGACTG,-0.0385 ± 0.012
15,CCTACGGC,-0.197 ± 0.06
16,ATGCGATC,-0.0333 ± 0.042
17,GATCATAA,-0.101 ± 0.0013
18,AAACATAC,-0.249 ± 0.03
19,AGTCCTAC,0.00754 ± 0.011
20,CATTAATC,-0.175 ± 0.012
21,GGAGGTCA,0.0158 ± 0.0067
22,AGGACCAT,-0.191 ± 0.059
23,CGAGCTAC,-0.0731 ± 0.092
24,AGGTTGCG,0.203 ± 0.015
25,TACGGTCA,-0.149 ± 0.0075

row,Sequence,PBM E-score of 8-mer
1,ACCGTTGC,0.0163 ± 0.055
2,AAATAGGC,-0.0466 ± 0.063
3,ATGTCAAG,-0.0802 ± 0.059
4,AGTATGGG,-0.153 ± 0.012
5,CTAATAGC,0.0155 ± 0.017
6,CCCAAATA,-0.217 ± 0.024
7,TAAATGGA,-0.183 ± 0.024
8,GAAGACCC,-0.094 ± 0.0033
9,AAGTGCGC,0.138 ± 0.026
10,GTATAAAC,-0.0989 ± 0.041
11,GAGGCGCA,0.105 ± 0.017
12,GGAGCCTA,-0.148 ± 0.07
13,CATAAGAA,-0.0845 ± 0.019
14,GCGAACCA,0.082 ± 0.087
15,CCACGCAG,-0.168 ± 0.0041
16,ATGAAAGG,-0.0708 ± 0.048
17,ATACCGAT,-0.2596 ± 0.00038
18,TAAGAAGA,-0.158 ± 0.036
19,AAAGATGC,-0.0825 ± 0.01
20,AATTATAA,-0.0957 ± 0.0095
21,TACCTTGA,0.00793 ± 0.011
22,CGACTCCC,-0.0166 ± 0.00058
23,ACCATACT,-0.16 ± 0.051
24,GGACACCC,0.242 ± 0.037
25,AAATGAGT,-0.00317 ± 0.1

row,Sequence,PBM E-score of 8-mer
1,ACGAAAGT,0.0225 ± 0.005
2,GCAAGCGC,0.0149 ± 0.012
3,AACCAATC,-0.215 ± 0.044
4,AAGCGAGC,0.16 ± 0.02
5,TGGACCCA,-0.164 ± 0.018
6,ATACATAG,-0.253 ± 0.02
7,CATGACAG,-0.036 ± 0.025
8,ATAAAACC,-0.162 ± 0.071
9,CTACGCGA,0.000755 ± 0.04
10,AACTTCAA,0.0368 ± 0.066
11,ATAAGAGA,-0.11 ± 0.014
12,GTGAAATA,0.22 ± 0.028
13,CAGCTTAA,-0.0988 ± 0.043
14,GAACCTGA,-0.0662 ± 0.027
15,ACACGACT,0.126 ± 0.028
16,GGACAACA,0.0292 ± 0.044
17,ACCTTCGA,0.126 ± 0.028
18,CATCGCAA,0.0368 ± 0.039
19,AGATACAT,-0.213 ± 0.044
20,TCACGGGA,0.0985 ± 0.012
21,TGCGCCCA,-0.142 ± 0.078
22,TGACAAAA,0.333 ± 0.022
23,GGAAAGTA,-0.118 ± 0.036
24,AACTGTGA,0.361 ± 0.026
25,CCCGTCAG,0.102 ± 0.12

row,Sequence,PBM E-score of 8-mer
1,ACCCCTCA,0.0373 ± 0.049
2,CTACCCCA,-0.116 ± 0.0095
3,AGCAGCGG,-0.117 ± 0.045
4,ACCGCTCT,-0.169 ± 0.058
5,CTGATCTA,-0.329 ± 0.035
6,GTGCTGTA,-0.0335 ± 0.024
7,GAGACCGC,-0.074 ± 0.049
8,CGCTTGTC,0.138 ± 0.03
9,CATGAATC,0.0325 ± 0.041
10,CCAGCATC,-0.121 ± 0.085
11,AATCGTAA,-0.0687 ± 0.016
12,TACCCGGA,0.0435 ± 0.04
13,CCGAGTCA,-0.0527 ± 0.13
14,GATAAAAC,-0.0131 ± 0.087
15,CCAATGGC,0.0745 ± 0.041
16,AGTCAGCC,-0.111 ± 0.0071
17,AGGAGTGG,0.00902 ± 0.039
18,CACTAGGC,0.155 ± 0.0034
19,CACCAAAA,0.115 ± 0.063
20,CAATCATA,-0.102 ± 0.056
21,TAAGGGCA,-0.13 ± 0.0082
22,ATCGGTAG,-0.244 ± 0.035
